Results: the BET-seq Pho4 binding data (Le et al. 2018)
This is one part of the list. These are noisy estimates, calculated here from bound and input reads.

Biological target: T1, Pho4 (S. cerevisiae) (UniProt P07270)
T1 sequence: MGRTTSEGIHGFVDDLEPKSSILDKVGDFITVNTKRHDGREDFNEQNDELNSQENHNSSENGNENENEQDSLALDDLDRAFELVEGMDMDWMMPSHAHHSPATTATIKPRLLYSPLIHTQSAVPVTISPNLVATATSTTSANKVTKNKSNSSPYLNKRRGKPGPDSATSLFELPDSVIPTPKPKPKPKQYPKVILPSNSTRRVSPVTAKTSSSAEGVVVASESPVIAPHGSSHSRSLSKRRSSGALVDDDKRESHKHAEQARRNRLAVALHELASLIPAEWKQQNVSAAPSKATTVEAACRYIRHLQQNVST
Assay: relative binding free energy (BET-seq); higher = weaker binding
Conditions: reference: library average

Relative binding free energy, 0.26 kcal/mol:
TAATTCACGTGTGGGA

Relative binding free energy, -0.15 kcal/mol:
TTAAGCACGTGGGGCT
TGCGGCACGTGCTTGG
AAGAACACGTGGGGTG
AGGGCCACGTGGTCGG
CGGGGCACGTGTGCAT

Relative binding free energy, -0.27 kcal/mol:
CTTGGCACGTGGGTGT
CGGAGCACGTGGGGGT

Relative binding free energy, 0.07 kcal/mol:
CTTGACACGTGTTTGG
AGCGGCACGTGAAGGG

Relative binding free energy, 0.22 kcal/mol:
CCTGTCACGTGAGGGT
TTTTTCACGTGCGTAC
TTAATCACGTGTAATC

Relative binding free energy, 0.09 kcal/mol:
GGTGTCACGTGGCGAT
GGATGCACGTGGAGAG
GTTGGCACGTGTATGA
TTTGCCACGTGAGTAG

Relative binding free energy, 0.36 kcal/mol:
GTTCTCACGTGTGAGA

Relative binding free energy, -0.03 kcal/mol:
TTGAACACGTGGTCAT
AGTTACACGTGCTTGT
TAAGCCACGTGTAGGT
AGGGTCACGTGTCCGT

Relative binding free energy, 0.02 kcal/mol:
GGGGACACGTGGAGCA
CGGTGCACGTGATGTA
CGTGTCACGTGGGAAG
TGGTCCACGTGTATTA

Relative binding free energy, 0.03 kcal/mol:
GTACGCACGTGGTTTT
GTTGGCACGTGATAGC

Relative binding free energy, 0.25 kcal/mol:
GGAGTCACGTGTTAGA
GGATGCACGTGATATT
TTTTACACGTGATTGA
CTTTTCACGTGCGGTA
GTGTTCACGTGTTGCG

Relative binding free energy, 0.27 kcal/mol:
CGAGTCACGTGAATGT
GGGATCACGTGATGGT
AATTTCACGTGGAGGC
TGGTTCACGTGCAGTT
GTTCACACGTGATATG
GATCGCACGTGTTCGG

Relative binding free energy, 0.49 kcal/mol:
GGATTCACGTGAGTCG

Relative binding free energy, 0.1 kcal/mol:
AAGTGCACGTGATATG
AAATACACGTGTTTTG

Relative binding free energy, 0.04 kcal/mol:
ACGTGCACGTGTGGAG
TATTGCACGTGTTAGG

Relative binding free energy, -0.1 kcal/mol:
CTGAGCACGTGGTGGA
TATTGCACGTGGCCTG
ATGTACACGTGTGTTC
AGTAGCACGTGTTTCA
GGGACCACGTGGTCGG

Relative binding free energy, 0.38 kcal/mol:
GATTTCACGTGTGTGT
TGTTTCACGTGTTTAC

Relative binding free energy, 0.01 kcal/mol:
ATAGACACGTGTGGTA
GGTTGCACGTGGGGAA
ATTGTCACGTGCTTAG
GAAGTCACGTGGTGCG
AATAGCACGTGTGATG
TGATACACGTGGTAAG
AGTATCACGTGGGTAC
TGATTCACGTGGCAGG

Relative binding free energy, -0.16 kcal/mol:
ATTGGCACGTGTGCGA
GATCGCACGTGGGGAG

Relative binding free energy, -0.22 kcal/mol:
TGTGGCACGTGGGATG
TGTGCCACGTGGCGGG
TCTGGCACGTGGCGTT

Relative binding free energy, 0.29 kcal/mol:
GGGGTCACGTGATAAT
CGGTACACGTGAGTAG
ATCTTCACGTGGATTG
ATTTTCACGTGACAGT

Relative binding free energy, -0.02 kcal/mol:
GTCAACACGTGGTCGG
AATCGCACGTGTAGGG
CTAATCACGTGTGGTG
ATGTGCACGTGCGGTC
CGAGGCACGTGTCGGT
AATGTCACGTGGGTTG
TTAAACACGTGGGATA
TTGTGCACGTGTATGA
GATAGCACGTGTCGGT
TGAGACACGTGTCGGG

Relative binding free energy, 0.06 kcal/mol:
GATGGCACGTGAGGAG
GGGTACACGTGGTAGT
AATGCCACGTGTTTTG
GTTGTCACGTGCGCTA
TCTTACACGTGTGTTA
TTACTCACGTGGTAGT
ACGTTCACGTGGATGG

Relative binding free energy, -0.14 kcal/mol:
ATAGGCACGTGTTACG
ACGGGCACGTGTGGCT
AGTGACACGTGGGGGG
TTAGCCACGTGGAGTT
TTTGTCACGTGCCGTT
AGTGGCACGTGTAGGT
GGGGGCACGTGTGTCC

Relative binding free energy, -0.01 kcal/mol:
CTGTACACGTGGTAGG
AATAGCACGTGTTTAT
GCGTGCACGTGGATGA

Relative binding free energy, 0.3 kcal/mol:
GCTTACACGTGTGGGC
GGGGCCACGTGAGTTC
GGCGTCACGTGAGGAG

Relative binding free energy, 0 kcal/mol:
GAGTGCACGTGGTTCG
TTGAGCACGTGTTCTT
AGTTGCACGTGATTAT
GTGACCACGTGGAGGT
TGTCACACGTGTGGTA
AGATGCACGTGTAGTG
GCAATCACGTGGGGGT
ATAGGCACGTGATTTT

Relative binding free energy, 0.39 kcal/mol:
TTGGTCACGTGAGTTA

Relative binding free energy, 0.05 kcal/mol:
GTTAGCACGTGTGGAA
TAGTGCACGTGTATAT

Relative binding free energy, 0.34 kcal/mol:
GATGACACGTGAGGAG

Relative binding free energy, -0.05 kcal/mol:
GGGTGCACGTGCTAAG
TTTAACACGTGGGGTC
GGTCGCACGTGCTGGA
GTAAGCACGTGTTTGG

Relative binding free energy, 0.21 kcal/mol:
AGTATCACGTGTATGA
AAGTTCACGTGGATAG
ACGGTCACGTGATTGT
GTGGACACGTGAAAGT

Relative binding free energy, 0.37 kcal/mol:
GCGGTCACGTGAGGGC

Relative binding free energy, -0.25 kcal/mol:
TGGGGCACGTGGGGGC
CTTTGCACGTGGTGTA
CTCGGCACGTGGGGTT

Relative binding free energy, 0.23 kcal/mol:
GTAAGCACGTGAAGGG
TGGGTCACGTGACCTG
GTCAGCACGTGACGGG
TGCTGCACGTGAGGGA

Relative binding free energy, -0.12 kcal/mol:
TAGGGCACGTGGGAAA

Relative binding free energy, 0.12 kcal/mol:
CTATGCACGTGTGGTT
AGATGCACGTGTAAAT
AGGATCACGTGGGAGT

Relative binding free energy, -0.18 kcal/mol:
AACAGCACGTGGTGTG
TAAGGCACGTGGTGTG
GGCGCCACGTGGGGCT
TGTGGCACGTGGGTAG
GCCGACACGTGGGGGG

Relative binding free energy, -0.11 kcal/mol:
GGGGGCACGTGCAAGC
TGGTGCACGTGGGCTT
GTGGACACGTGGGTAA
TGGGACACGTGGGGCT
AGGTGCACGTGGTGCG
GTGTACACGTGGTGAT
CGTTGCACGTGGGAGG

Relative binding free energy, -0.19 kcal/mol:
CATGTCACGTGGGCTG
AGGGGCACGTGCTCAG
TCTGGCACGTGGGTGA

Relative binding free energy, 0.11 kcal/mol:
AGGGTCACGTGCTGAA
GGGATCACGTGTAGCG
TCTGTCACGTGCTGGT
GTGCACACGTGTTTAT

Relative binding free energy, 0.13 kcal/mol:
AAGGTCACGTGTGCGT
TTTTACACGTGCGGTA
GCTGTCACGTGGAGTA

Relative binding free energy, 0.32 kcal/mol:
GAGTGCACGTGAAATG
AATTTCACGTGTATAG

Relative binding free energy, 0.31 kcal/mol:
AACTGCACGTGAGGGG
AATCTCACGTGAGGGT
TTTTTCACGTGACGCT
GTAGACACGTGAGATT
TATTTCACGTGTAGGA

Relative binding free energy, 0.52 kcal/mol:
AGGTTCACGTGAGGAG

Relative binding free energy, 0.24 kcal/mol:
TAGTTCACGTGCTAGG
GGGTTCACGTGGTGCG
GGCATCACGTGTGAGT

Relative binding free energy, -0.13 kcal/mol:
GAGTGCACGTGGGCCT
GAAGGCACGTGTTTAG
TCTCGCACGTGCGGGG
CGCAGCACGTGTGGTG

Relative binding free energy, -0.06 kcal/mol:
CGGTGCACGTGCAGTT
TCTGGCACGTGTACGG
GTGGGCACGTGTCATA
TATATCACGTGGGTCT
AGGCGCACGTGTGGTC
AGAGGCACGTGGAGAT

Relative binding free energy, 0.55 kcal/mol:
GGGTTCACGTGATTGG

Relative binding free energy, -0.41 kcal/mol:
ACTCGCACGTGGGGTG

Relative binding free energy, -0.04 kcal/mol:
TTATGCACGTGCTGCG
TATGGCACGTGGGAAA
ATAGTCACGTGCGAGT
TGCGGCACGTGTTTGC
AGGGCCACGTGTGGTC

Relative binding free energy, 0.14 kcal/mol:
AGTGACACGTGATTCG
GGTCTCACGTGGAGGT
TAAGTCACGTGCAGGG
GTGTGCACGTGTGATA
GAGATCACGTGTAGTG
GGTGCCACGTGAAGGG

Relative binding free energy, -0.09 kcal/mol:
ACGGTCACGTGGGTGA
GGGGGCACGTGGTTAG
TGAGGCACGTGTTAGG
GAGTGCACGTGTTAGT
GTTCGCACGTGTTGAT

Relative binding free energy, 0.17 kcal/mol:
CGAATCACGTGGTATT
AAGAGCACGTGATAGT
ATTTACACGTGGACTT
GTTGTCACGTGTGATC
CAGGGCACGTGTAAAT

Relative binding free energy, 0.2 kcal/mol:
TTCGGCACGTGAGAGG
TGGAGCACGTGAGTGC
GTGATCACGTGCTTGG
CGACGCACGTGAGGGG
GGGGACACGTGAGTAA

Relative binding free energy, -0.07 kcal/mol:
TTAGCCACGTGTGTGT
CGTGTCACGTGGGCAG
ATTGGCACGTGTAGGG

Relative binding free energy, -0.24 kcal/mol:
GAAAGCACGTGGTGGA

Relative binding free energy, 0.08 kcal/mol:
TGGGACACGTGTCAGG
GGCCTCACGTGGGGTA

Relative binding free energy, 0.16 kcal/mol:
CATCTCACGTGGTGGT
CTGGTCACGTGGTTTC
ATGTTCACGTGGTAGC
GTGTGCACGTGAGCGG
TGGGACACGTGAGCGG
TTAGTCACGTGACAGG

Relative binding free energy, -0.23 kcal/mol:
GGGTGCACGTGCGCAG
AACAGCACGTGGTGGG

Relative binding free energy, 0.42 kcal/mol:
GGGGTCACGTGAGCTT

Relative binding free energy, -0.33 kcal/mol:
GTCGCCACGTGGGGGG

Relative binding free energy, 0.15 kcal/mol:
CGGGTCACGTGATTTT
GTAGTCACGTGGAGAA
TTATGCACGTGTAAGA
GCTTACACGTGTTTGG

Relative binding free energy, -0.08 kcal/mol:
TGCTACACGTGGGGGC
TGAGGCACGTGGTGTG
CGATGCACGTGGTATA
TTCTGCACGTGGTATG
TAGGCCACGTGTGTAT

Relative binding free energy, 0.35 kcal/mol:
TGCATCACGTGAAGGG
GGTTTCACGTGCTGAA
GTGTTCACGTGTTTTC

Relative binding free energy, 0.28 kcal/mol:
TTTTTCACGTGACAGG
